Several values for one entry are separate records, joined by “and”; a condition that tells them apart may be missing. Equal entries are not always repeated. Whole data set: some 2,900 compounds, median “NF-kB SEAP reporter activity, fold change vs agonist alone” near 0.99, cut for the highest 2% near 2.6. The list shows a part of the results.
Experiments:
RAW-Dual [1] = assay: NF-kB SEAP reporter activity, fold change vs agonist alone; higher = enhanced NF-kB activity; conditions: library stock concentration (final ~1000-fold dilution): 10 mM, cytotoxicity flag (confluency mask): not cytotoxic
Procedure, shortened: (§1)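 Cytotoxic wells were those whose IncuCyte confluency was below 70% of agonist controls in both mask sets. The cells were RAW-Dual macrophages at 50,000 cells/well in DMEM on 384-well plates, dosed with 50 nL of library stock by pin tool, stimulated with a PRR agonist 1 h later, and kept at 37 °C, 5% CO2 for 20 hours. IRF and NF-κB reporter activity, as fold change over agonist-alone wells, came from supernatant read by QuantiLuc luminescence and QuantiBlue absorbance, respectively.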

RAW-Dual [2] = assay: NF-kB SEAP reporter activity, fold change vs agonist alone; cytotoxicity flag (confluency mask): not cytotoxic; higher = enhanced NF-kB activity
Procedure, shortened: as §1

[3] = agonist: ODN 1826 (TLR9) 0.5 ug/mL
[4] = agonist: Pam2CSK4 (TLR2/6) 0.1 ug/mL
[5] = agonist: Pam3CSK4 (TLR2/1) 0.1 ug/mL

## CC(C)Cn1c(=O)n(C)c(=O)c2nc[nH]c21
RAW-Dual [1]; agonist: Imiquimod (TLR7) […]
  NF-kB SEAP reporter activity: 0.967
RAW-Dual [1]; agonist: MPLA (TLR4) […]
  NF-kB SEAP reporter activity: 1.22

## CC(C)Cn1c(=O)n(C)c(=O)c2nc[nH]c21 (library stock concentration (final ~1000-fold dilution): 10 mM)
RAW-Dual [2]; agonist: LPS (TLR4) 0.1 ug/mL
  NF-kB SEAP reporter activity: 1.15
RAW-Dual [2]; [3]
  NF-kB SEAP reporter activity: 1.11
RAW-Dual [2]; [4]
  NF-kB SEAP reporter activity: 0.98
RAW-Dual [2]; [5]
  NF-kB SEAP reporter activity: 1.16

## COc1ccc2cc3[n+](cc2c1OC)CCc1cc2c(cc1-3)OCO2 (library stock concentration (final ~1000-fold dilution): 10 mM)
RAW-Dual [2]; agonist: LPS (TLR4) 0.1 ug/mL
  NF-kB SEAP reporter activity: 1.72 and 1.63
RAW-Dual [2]; [3]
  NF-kB SEAP reporter activity: 0.972 and 1.07
RAW-Dual [2]; [4]
  NF-kB SEAP reporter activity: 0.794 and 0.844
RAW-Dual [2]; [5]
  NF-kB SEAP reporter activity: 1.16 and 0.826

## CC1COC2Cn3cc(C(=O)NCc4ccc(F)cc4F)c(=O)c(O)c3C(=O)N12 (stereo not given)
RAW-Dual [1]; agonist: Imiquimod (TLR7) […]
  NF-kB SEAP reporter activity: 0.969
RAW-Dual [1]; agonist: MPLA (TLR4) […]
  NF-kB SEAP reporter activity: 1.11

## CC1COC2Cn3cc(C(=O)NCc4ccc(F)cc4F)c(=O)c(O)c3C(=O)N12 (stereo not given) (library stock concentration (final ~1000-fold dilution): 10 mM)
RAW-Dual [2]; agonist: LPS (TLR4) 0.1 ug/mL
  NF-kB SEAP reporter activity: 1.38
RAW-Dual [2]; [3]
  NF-kB SEAP reporter activity: 1.03
RAW-Dual [2]; [4]
  NF-kB SEAP reporter activity: 0.808
RAW-Dual [2]; [5]
  NF-kB SEAP reporter activity: 0.866

## COc1ccc2c(c1)c(CC(=O)OCC(=O)O)c(C)n2C(=O)c1ccc(Cl)cc1 (library stock concentration (final ~1000-fold dilution): 10 mM)
RAW-Dual [2]; agonist: LPS (TLR4) 0.1 ug/mL
  NF-kB SEAP reporter activity: 0.942
RAW-Dual [2]; [3]
  NF-kB SEAP reporter activity: 1.29
RAW-Dual [2]; [4]
  NF-kB SEAP reporter activity: 1.14
RAW-Dual [2]; [5]
  NF-kB SEAP reporter activity: 1.04

## COc1ccc2c(c1)c(CC(=O)OCC(=O)O)c(C)n2C(=O)c1ccc(Cl)cc1
RAW-Dual [1]; agonist: Imiquimod (TLR7) […]
  NF-kB SEAP reporter activity: 1.13
RAW-Dual [1]; agonist: MPLA (TLR4) […]
  NF-kB SEAP reporter activity: 0.997

## CC1C(=O)OC2CC34C5CC(C(C)(C)C)C36C(OC(=O)C6O)OC4(C(=O)O5)C21O (stereo not given) (library stock concentration (final ~1000-fold dilution): 10 mM)
RAW-Dual [2]; agonist: LPS (TLR4) 0.1 ug/mL
  NF-kB SEAP reporter activity: 0.923
RAW-Dual [2]; [3]
  NF-kB SEAP reporter activity: 1.16
RAW-Dual [2]; [4]
  NF-kB SEAP reporter activity: 1.11
RAW-Dual [2]; [5]
  NF-kB SEAP reporter activity: 1.22

## CC1C(=O)OC2CC34C5CC(C(C)(C)C)C36C(OC(=O)C6O)OC4(C(=O)O5)C21O (stereo not given)
RAW-Dual [1]; agonist: Imiquimod (TLR7) […]
  NF-kB SEAP reporter activity: 0.973
RAW-Dual [1]; agonist: MPLA (TLR4) […]
  NF-kB SEAP reporter activity: 1.09

## CCCNC(C)C(=O)Nc1ccccc1C.Cl (stereo not given) (library stock concentration (final ~1000-fold dilution): 10 mM)
RAW-Dual [2]; agonist: LPS (TLR4) 0.1 ug/mL
  NF-kB SEAP reporter activity: 0.972
RAW-Dual [2]; [3]
  NF-kB SEAP reporter activity: 0.957
RAW-Dual [2]; [4]
  NF-kB SEAP reporter activity: 1
RAW-Dual [2]; [5]
  NF-kB SEAP reporter activity: 0.889

## CCCNC(C)C(=O)Nc1ccccc1C.Cl (stereo not given)
RAW-Dual [1]; agonist: MPLA (TLR4) […]
  NF-kB SEAP reporter activity: 1.03

## NC(=O)C(CCC(F)(F)F)N(Cc1ccc(-c2ncon2)cc1F)S(=O)(=O)c1ccc(Cl)cc1 (stereo not given) (library stock concentration (final ~1000-fold dilution): 10 mM)
RAW-Dual [2]; agonist: LPS (TLR4) 0.1 ug/mL
  NF-kB SEAP reporter activity: 0.935
RAW-Dual [2]; [3]
  NF-kB SEAP reporter activity: 0.808
RAW-Dual [2]; [4]
  NF-kB SEAP reporter activity: 0.675
RAW-Dual [2]; [5]
  NF-kB SEAP reporter activity: 0.682

## NC(=O)C(CCC(F)(F)F)N(Cc1ccc(-c2ncon2)cc1F)S(=O)(=O)c1ccc(Cl)cc1 (stereo not given)
RAW-Dual [1]; agonist: Imiquimod (TLR7) […]
  NF-kB SEAP reporter activity: 0.84
RAW-Dual [1]; agonist: MPLA (TLR4) […]
  NF-kB SEAP reporter activity: 0.946

## C=C1CCC(O)C/C1=C/C=C1\CCCC2(C)C1CCC2C(C)/C=C/C(C)C(C)C (stereo not given)
RAW-Dual [1]; agonist: Imiquimod (TLR7) […]
  NF-kB SEAP reporter activity: 0.745
RAW-Dual [1]; agonist: MPLA (TLR4) […]
  NF-kB SEAP reporter activity: 0.857

## C=C1CCC(O)C/C1=C/C=C1\CCCC2(C)C1CCC2C(C)/C=C/C(C)C(C)C (stereo not given) (library stock concentration (final ~1000-fold dilution): 10 mM)
RAW-Dual [2]; agonist: LPS (TLR4) 0.1 ug/mL
  NF-kB SEAP reporter activity: 0.764
RAW-Dual [2]; [3]
  NF-kB SEAP reporter activity: 0.771
RAW-Dual [2]; [4]
  NF-kB SEAP reporter activity: 0.767
RAW-Dual [2]; [5]
  NF-kB SEAP reporter activity: 0.764
